Results as given in PubChem BioAssay AID1345082 (National Center for Advancing Translational Sciences (NCATS), 2018).
Among all 94,000 compounds or so, about 4,000 (4.3%) were called active. Inconclusive results, whose numbers are uncertain, are shown with a selection of clear calls. Calls come from the whole dose curve; as a rule, active = well fitted inhibition curve with a large enough effect; inconclusive = small, poorly fitted or top-dose-only effect; inactive = no such curve, though single readings can be large or run the other way. Where the call is inconclusive, the potency comes from a doubtful curve fit.

Test: Cytotoxic Profiling in NIH 3T3 Cell Line of Diverse Libraries Using Quantitative High-Throughput Screening; note: nearly all actives have a fitted effect of over 55% in size
Conditions: NIH 3T3 viability, CellTiter-Glo ATP luminescence, 48-72 h; activity change, negative = cytotoxicity: at 96.7 µM (top of the series) unless noted; series mostly up to 96.7 µM
Outline: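 NIH 3T3 cells at 400 cells/well received 23 nL of compound by pintool and were incubated 48 or 72 h at 37 °C. Viability was read as ATP-coupled CellTiter-Glo luminescence.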
% is set by controls: 0 for no effect and ±100 for the full control effect; potency is the fitted concentration of half-maximal effect; tags give direction and shape of the fitted curve.

| Compound | Potency | activity change, negative = cytotoxicity | outcome |
| --- | --- | --- | --- |
| CCCc1noc(-c2cn(C3CCN(C(=O)Cc4cccc(OC)c4)CC3)nn2)n1 | inconclusive: 28.2 µM [inhibitor, partial curve] |  |  |
| O=C(NCc1ccccc1F)c1nc2sccn2c1-c1ccc(F)cc1 |  | inactive: -17.7% |  |
| O=C(Cc1ccc(F)cc1)N1CCN(c2ccc3nnc(C4CC4)n3n2)CC1 | inconclusive: 63.1 µM [inhibitor, partial curve, poor fit] |  |  |
| CCOC(=O)c1cccc(NC(=O)N2CC[C@@H](CC(=O)NC3CC3)[C@@H](CC)C2)c1 |  | inactive: 2.46% [at 138 µM] |  |
| O=C1N(CCc2ccccc2)CCOC12CCN(Cc1ccc3cn[nH]c3c1)CC2 | inconclusive: 79.4 µM [inhibitor, partial curve] |  |  |
| COC[C@@H]1CCCN1Cc1cn(-c2ccccc2)nc1-c1ccc(OC)cc1F | inconclusive: 50.1 µM [inhibitor, partial curve, poor fit] |  |  |
| CC1=C[C@@H](CNS(C)(=O)=O)[C@H](C(C)C)C[C@H]1Cc1nnc(-c2cncn2C)o1 | inconclusive: 89.1 µM [inhibitor, partial curve] |  |  |
| Cn1ncc2c(C(=O)NCc3cccc(C(F)(F)F)c3)cc(-c3cccnc3)nc21 | inconclusive: 44.7 µM [inhibitor, partial curve, poor fit] |  |  |
| Cc1cc(-c2cnc3n[nH]c(-c4ccc5c(c4)OCO5)c3n2)ccn1 | inconclusive: 100 µM [inhibitor, partial curve, poor fit] |  |  |
| COc1cccc([S+](=O)([O-])N2CCC(N3CCCC3=O)CC2)c1 |  | inactive: -21% [at 138 µM] |  |
| O=C(c1ccc(Cl)nc1)N1CCC(C(=O)N2CCCC(c3nc4ccncc4[nH]3)C2)CC1 (configuration not stated) |  | inactive: -8.71% |  |
| O=C(NCc1cccc(Cl)c1)c1ccc2nc(-c3cccnc3)oc2c1 | inconclusive: 28.2 µM [inhibitor, full curve] |  |  |
| Cc1ccc2c(n1)OC(COc1ccccc1)CN(c1ccccc1)C2=O (configuration not stated) |  | inactive: -11.3% [at 46.1 µM] |  |
| Cc1ccccc1C(=O)NC1CCN(c2ccnc3ccnn23)C1 (configuration not stated) | inconclusive: 25.1 µM [inhibitor, full curve] |  |  |
| COc1ccc(CN2CC3(CCN(C(=O)Nc4ccc5c(c4)OCCO5)CC3)C2=O)cc1 | inconclusive: 44.7 µM [inhibitor, partial curve, poor fit] |  |  |
| CC(C(=O)N1CCc2onc(-c3ccc(C(F)(F)F)cc3)c2C1)N1CCCC1=O (configuration not stated) | inconclusive: 44.7 µM [inhibitor, partial curve, poor fit] |  |  |
| O=C(Cc1c[nH]c2ncc(-c3cccc(CO)c3)cc12)N1CCOCC1 | inconclusive: 44.7 µM [inhibitor, partial curve, poor fit] |  |  |
| Cc1cc(C(=O)N2CCCN(S(C)(=O)=O)C(c3ccccc3)CC(=O)NCC2)n(C)n1 (configuration not stated) |  | inactive: -21.2% |  |
| O=C(C1CCCC1)N1CCC(CCOc2ccc(F)cc2)C1 (configuration not stated) | inconclusive: 39.8 µM [inhibitor, partial curve] |  |  |
| O=C(c1cccc(OC2CN(Cc3ccc(F)cc3Cl)C2)c1)N1CCOCC1 | inconclusive: 56.2 µM [inhibitor, partial curve, poor fit] |  |  |
| CC(=O)c1cccc(NC(=O)Cn2c(=O)n(-c3cccc(C)c3)c(=O)c3c2cc(C)n3C)c1 |  | inactive: -9.37% |  |

| Compound | Potency | activity change, negative = cytotoxicity | outcome |
| --- | --- | --- | --- |
| CC1CCC2(CC1)NC(=O)N(CC(=O)Nc1cccc(F)c1)C2=O (configuration not stated) |  | inactive: -3.32% |  |
| O=[S+]([O-])(c1cccc(C(F)(F)F)c1)N1CCN(Cc2ccccc2-c2cccnc2)CC1 | active: 35.5 µM |  |  |
| COC[C@@H]1CN(Cc2ccc(C)cn2)C[C@H]1C(=O)NC1CC1 |  | inactive: 0.74% |  |
| COc1ccc(C(=O)NC(C(=O)NC(C)C(C)C)C2CCN(C(=O)c3ccc(C)cc3)CC2)cc1 (configuration not stated) |  | inactive: -17.5% |  |
| CCCCCC(=O)N1CC[C@@H](CC(=O)NCc2cccnc2)[C@@H](CC)C1 |  | inactive: -31.4% [at 174 µM] |  |
| CCOC(=O)C1=C(C)N=C2SC=C(CC(=O)Nc3cccc(OC)c3)N2C1c1cccc(OC)c1 (configuration not stated) | inconclusive: 50.1 µM [inhibitor, partial curve, poor fit] |  |  |
| Cc1nccn1CCCC(=O)NC1CC(c2nnc(CO)n2C2CC2)C1 (configuration not stated) |  | inactive: -3.9% |  |
| CCc1ccc(NC(=O)c2ccc(CN3C(=O)NC4(CCOCC4)C3=O)cc2)cc1 | inconclusive: 44.7 µM [inhibitor, partial curve, poor fit] |  |  |
| O=C(c1ccccc1Cl)N1CCC(C(=O)N2CCC(c3nc4ncccc4[nH]3)CC2)C1 (configuration not stated) |  | inactive: -24.5% |  |
| O=C(NC1CCCCC1)N1CCCC1c1nnc2n1CCNC2 (configuration not stated) | inconclusive: 89.1 µM [inhibitor, single point] |  |  |
| COc1cccc(-c2cc(C(=O)N3CCN(c4ncccn4)CC3)c3cnn(C)c3n2)c1 | inconclusive: 56.2 µM [inhibitor, partial curve, poor fit] |  |  |
| COc1ccc(N2CC(c3noc(-c4ccc(C(C)(C)C)cc4)n3)CC2=O)cc1OC (configuration not stated) | inconclusive: 39.8 µM [inhibitor, partial curve, poor fit] |  |  |
| CCNC(=O)N[C@H]1CO[C@H]2[C@@H]1OC[C@@H]2n1nnnc1Oc1cccc(N(C)C)c1 |  | inactive: -22.8% [at 174 µM] |  |
| O=C1CCCCC(CNC(=O)c2ccccn2)N1 (configuration not stated) |  |  | inactive |
| COc1ccccc1Nc1ccnc(N2CCC(C(=O)NCc3ccc(F)cc3)CC2)n1 | inconclusive: 35.5 µM [inhibitor, partial curve] |  |  |
| O=C(Cc1ccccc1Cl)N1CCC2(CC1)NC(=O)N(c1cccc(F)c1)N2 | inconclusive: 39.8 µM [inhibitor, partial curve, poor fit] |  |  |
| O=C(c1ccc(Cl)cc1Cl)N1CCN(c2cc(-c3ccccc3)[nH]n2)CC1 | active: 31.6 µM |  |  |
| COCCn1c2c(c(=O)n1-c1ccccc1)CCN(C(=O)c1cc3ccccc3n1C)C2 | inconclusive: 89.1 µM [inhibitor, partial curve, poor fit] |  |  |
| COc1ccc(-c2cn3cc(C(=O)NCc4ccc(F)c(F)c4)nc3s2)cc1 | inconclusive: 20 µM [inhibitor, full curve, poor fit] |  |  |
| CC(C)Cc1cc(C[C@@H]2C[C@H](NC(=O)C3CCC3)C2(C)C)no1 | inconclusive: 11.2 µM [inhibitor, full curve, poor fit] |  |  |
| CCOC(=O)[C@H]1C[C@]2(CCCCN(CCO)C2=O)N(C(=O)CC(C)(C)C)[C@H]1c1ccco1 | inconclusive: 50.1 µM [inhibitor, partial curve, poor fit] |  |  |
